Counter-ions that a name gives are not always drawn. This is one part of the list. Repeats are few or missing, and single values can be far off.
System: Beas-2B AQP5-HiBiT reporter cells
Test: AQP5-HiBiT luminescence relative to vehicle (ratio to vehicle); higher = higher AQP5-HiBiT protein abundance
Conditions: 10 µM; 18 h
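Also: monoclonal Beas-2B line stably carrying CMV promoter-driven AQP5-HiBiT, 5,000 cells per well in 384-well plates, lytic HiBiT plus LgBiT NanoLuc luminescence, FDA-approved drug library screen.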

Structure (SMILES) | AQP5-HiBiT luminescence
C[C@]1(O)CC[C@H]2[C@@H]3CCC4=CC(=O)CC[C@]4(C)[C@@]3(F)[C@@H](O)C[C@@]21C [Fluoxymesterone] | 0.68
C=C1CC[C@@]2(O)[C@H]3Cc4ccc(O)c5c4[C@@]2(CCN3CC2CC2)[C@H]1O5 [Nalmefene hydrochloride] | 0.877
C[C@]12Cc3c[nH]nc3C[C@@H]1CC[C@@H]1[C@@H]2CC[C@@]2(C)[C@H]1CC[C@]2(C)O [Stanozolol] | 0.8
CCC1(c2ccc(N)cc2)CCC(=O)NC1=O (stereo not drawn) [Aminoglutethimide] | 0.917
NCCCNCCSP(=O)(O)O [Amifostine] | 1.09
COc1ccc(C(CN(C)C)C2(O)CCCCC2)cc1 (stereo not drawn) [Venlafaxine hydrochloride] | 0.773
CN1C[C@H](C(=O)N[C@]2(C)O[C@@]3(O)[C@@H]4CCCN4C(=O)[C@H](Cc4ccccc4)N3C2=O)C[C@@H]2c3cccc4[nH]cc(c34)C[C@H]21 [Dihydroergotamine Mesylate] | 1.2
O=C(O[C@H]1C[C@H]2CC[C@@H](C1)[N+]21CCCC1)C(O)(c1ccccc1)c1ccccc1 [Trospium chloride] | 0.956
Cl[C@H]1[C@H](Cl)[C@@H](Cl)[C@@H](Cl)[C@H](Cl)[C@H]1Cl [Lindane] | 1.11
COc1ccc2c(c1)[C@]13CCCC[C@@H]1[C@H](C2)N(C)CC3 [Dextromethorphan HBr monohydrate] | 0.89
CC(O)(CS(=O)(=O)c1ccc(F)cc1)C(=O)Nc1ccc(C#N)c(C(F)(F)F)c1 (stereo not drawn) [Bicalutamide] | 0.855
C[C@]12CC[C@H]3[C@@H](CCC4=CC(=O)CC[C@@]43C)[C@@H]1CC[C@@H]2O [Testosterone] | 0.597
C[C@]12CC[C@H]3[C@@H](CC[C@@]45O[C@@H]4C(O)=C(C#N)C[C@]35C)[C@@H]1CC[C@@H]2O [Trilostane] | 0.803
CCC(=O)O[C@H]1CC[C@H]2[C@@H]3CCC4=CC(=O)CC[C@]4(C)[C@H]3CC[C@]12C [Testosterone propionate] | 0.969
COc1cc2c(c(OC)c1OC)-c1ccc(OC)c(=O)cc1[C@@H](NC(C)=O)CC2 [Colchicine] | 2.65
C=C1C[C@@H]2[C@H](CC[C@]3(C)C(=O)CC[C@@H]23)[C@@]2(C)C=CC(=O)C=C12 [Exemestane] | 1.15
COc1cc2c(cc1OC)C1CC(=O)C(CC(C)C)CN1CC2 (stereo not drawn) [Tetrabenazine] | 0.652

Structure (SMILES) | AQP5-HiBiT luminescence
COc1ccc(OC)c(C(O)C(C)N)c1 (stereo not drawn) [Methoxamine hydrochloride] | 1.08
C[C@]12CC[C@H]3[C@@H](CCC4=CC(=O)CC[C@@H]43)[C@@H]1CC[C@@H]2O [Nandrolone] | 0.849
NC(=O)C[S+]([O-])C(c1ccccc1)c1ccccc1 (stereo not drawn) [Modafinil] | 0.775
CN1C[C@H](C(=O)N[C@]2(C)O[C@@]3(O)[C@@H]4CCCN4C(=O)[C@H](Cc4ccccc4)N3C2=O)C=C2c3cccc4[nH]cc(c34)C[C@H]21 [Ergotamine bitartrate] | 0.85
CC(C)c1cccc(C(C)C)c1O [Propofol] | 1.18
CN1C(=O)CCS(=O)(=O)C1c1ccc(Cl)cc1 (stereo not drawn) [Chlormezanone] | 1
O=C(O)CCCc1ccc(N(CCCl)CCCl)cc1 [Chloroambucil] | 0.832
C[N+]1(C)CCCC(OC(=O)C(O)(c2ccccc2)c2ccccc2)C1 (stereo not drawn) [Mepenzolate Bromide] | 1.21
CCN(C)C(=O)Oc1cccc([C@H](C)N(C)C)c1 [Rivastigmine tartrate] | 1.01
C[N+]12CCC(CC1)C(OC(=O)C(O)(c1ccccc1)c1ccccc1)C2 (stereo not drawn) [Clidinium bromide] | 0.969
CC[C@@H](c1cccc(O)c1)[C@@H](C)CN(C)C [Tapentadol hydrochloride] | 0.825
Cn1c(CCCC(=O)O)nc2cc(N(CCCl)CCCl)ccc21 [Bendamustine hydrochloride] | 1.02
CC(C)C[C@H](CN)CC(=O)O [Pregabalin] | 1.06
O=C(O[C@H]1C[N+]2(CCCOc3ccccc3)CCC1CC2)C(O)(c1cccs1)c1cccs1 [Aclidinium bromide] | 1.38
O=P1(N(CCCl)CCCl)NCCCO1 (stereo not drawn) [Cyclophosphamide monohydrate] | 0.653
CN1[C@@H]2CC[C@H]1C[C@@H](OC(=O)C(CO)c1ccccc1)C2 (stereo partly drawn) [Atropine sulfate] | 0.888

— the supplement of paper PMC8821664
